The campaign covered roughly 310,000 compounds. About 14,000 (4.5%) showed an effect of 50% or more. Effects have a minus sign here. The list shows a part of the results.

Consider 45 molecules from PMC4336329 (PLoS ONE, 2015).
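Further: peak tail current of the secondary pulse compared with the same well before compound.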

The target of the test is human ether-à-go-go-related gene (hERG) potassium channel (human, UniProt Q12809). As to the kind of experiment: primary screen, population patch clamp on CHO cells stably expressing hERG.
Chain of human ether-à-go-go-related gene (hERG) potassium channel (Q12809 whole entry, looked up): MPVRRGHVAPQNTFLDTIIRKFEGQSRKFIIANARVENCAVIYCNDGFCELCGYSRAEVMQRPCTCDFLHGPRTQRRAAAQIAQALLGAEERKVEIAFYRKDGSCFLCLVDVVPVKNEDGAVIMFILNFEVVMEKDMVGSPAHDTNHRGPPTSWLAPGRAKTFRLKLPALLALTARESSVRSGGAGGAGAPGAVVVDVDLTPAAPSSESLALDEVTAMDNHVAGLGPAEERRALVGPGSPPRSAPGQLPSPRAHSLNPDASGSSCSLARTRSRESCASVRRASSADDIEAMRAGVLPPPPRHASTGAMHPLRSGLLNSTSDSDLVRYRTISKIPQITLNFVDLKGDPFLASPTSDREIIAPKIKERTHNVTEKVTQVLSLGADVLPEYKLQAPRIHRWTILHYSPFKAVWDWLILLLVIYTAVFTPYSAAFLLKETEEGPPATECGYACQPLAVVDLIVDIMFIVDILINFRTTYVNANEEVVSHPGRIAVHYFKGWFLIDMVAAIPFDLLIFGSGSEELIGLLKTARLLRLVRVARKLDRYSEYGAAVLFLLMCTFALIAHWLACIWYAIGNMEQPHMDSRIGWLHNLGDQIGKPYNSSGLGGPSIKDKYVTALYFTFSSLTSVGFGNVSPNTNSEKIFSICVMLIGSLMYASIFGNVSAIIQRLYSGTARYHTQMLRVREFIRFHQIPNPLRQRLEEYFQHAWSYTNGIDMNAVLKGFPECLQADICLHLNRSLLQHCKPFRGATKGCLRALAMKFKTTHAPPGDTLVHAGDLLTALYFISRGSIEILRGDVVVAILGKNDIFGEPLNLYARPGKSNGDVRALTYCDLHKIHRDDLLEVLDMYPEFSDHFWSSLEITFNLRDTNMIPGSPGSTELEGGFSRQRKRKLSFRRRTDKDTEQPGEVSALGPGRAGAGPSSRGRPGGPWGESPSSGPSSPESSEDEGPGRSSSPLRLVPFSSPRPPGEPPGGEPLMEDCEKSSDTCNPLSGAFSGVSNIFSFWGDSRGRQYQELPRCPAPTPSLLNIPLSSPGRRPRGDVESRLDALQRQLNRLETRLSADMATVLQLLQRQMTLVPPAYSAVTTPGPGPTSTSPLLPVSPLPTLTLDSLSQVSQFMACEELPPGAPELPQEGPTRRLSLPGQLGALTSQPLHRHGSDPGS
In the case of `CCOC(=O)c1c(S(=O)(=O)N(C)Cc2ccco2)c(C)n(C)c1C`, the “hERG current change (%, negative = inhibition) at 10uM” value is given as -3.13%.
As to `CCCCN1C(=O)c2ccc(C(=O)Nc3ccccc3N3CCOCC3)cc2C1=O`, the “hERG current change (%, negative = inhibition) at 10uM” value worked out at 7.18%.
In the case of `COc1cc(N/N=C/c2ccccc2O)ncn1`, the “hERG current change (%, negative = inhibition) at 10uM” value is on record as 4.11%.
Under `CCOC(=O)c1c(NC(=O)c2c(C)noc2C)sc2c1CCCCC2` stands 6.51%; under `COc1cc(NS(=O)(=O)c2ccc(N/C=C(\C#N)c3nc4cc(Cl)ccc4o3)cc2)nc(OC)n1`, -7.44%; under `Oc1ccccc1-c1nnc(COc2ccc(Cl)cc2Cl)o1`, 7.42%.
With `Cc1csc(=O)n1CC(=O)OCc1cccc2ccccc12`, the “hERG current change (%, negative = inhibition) at 10uM” value is on record as -9.39%.
Under `O=C(/C=C/c1cccc([N+](=O)[O-])c1)NC1CC2CCC1C2` (stereo not drawn) stands -24.7%.
On to `CCOc1cc(/C=C2\CN(C)C/C(=C\c3ccc(O)c(OCC)c3)C2=O)ccc1O.Cl`, for which the “hERG current change (%, negative = inhibition) at 10uM” value is 10.1%.
Turning to `O=C(COc1ccc(Cl)cc1)N(Cc1ccco1)C1CCS(=O)(=O)C1` (stereo not drawn), the “hERG current change (%, negative = inhibition) at 10uM” value is given as -20.5%.
Take `COc1ccc(/C=C(\C#N)C(=O)C(C)(C)n2cncn2)cc1`: the “hERG current change (%, negative = inhibition) at 10uM” value worked out at 26.6%.
Consider `CCNC(=S)Nc1ccc(C)c(Cl)c1`, for which the “hERG current change (%, negative = inhibition) at 10uM” value is 6.69%.
`COc1ccc2cc(/C=N/NC(=O)CN(c3ccccc3)S(=O)(=O)c3ccccc3)c(Cl)nc2c1`: the “hERG current change (%, negative = inhibition) at 10uM” value was -2.5%.
Consider `O=C(NC12CC3CC(CC(C3)C1)C2)c1ccc(COc2ccc(Cl)cc2[N+](=O)[O-])o1`, for which the “hERG current change (%, negative = inhibition) at 10uM” value was 13.5%.
Turning to `Cc1cccc(N2C(=O)C3CC3C2=O)c1` (stereo not drawn), the “hERG current change (%, negative = inhibition) at 10uM” value worked out at 26%.
In the case of `Cc1cc(=O)n2[nH]c(C(=O)O)nc2n1`, the “hERG current change (%, negative = inhibition) at 10uM” value is reported as 18.6%.
In the case of `Cc1csc(NC(=O)Cc2c[nH]c3ccccc23)n1`, the “hERG current change (%, negative = inhibition) at 10uM” value is -12.6%.
Turning to `CC1=C(C(=O)OC(C)C)C(c2ccc(Br)s2)NC(=O)N1C` (stereo not drawn), the “hERG current change (%, negative = inhibition) at 10uM” value is -18.8%.
For the molecule `CCOC(=O)N1CCN(C(=O)c2ccccc2N(C)S(C)(=O)=O)CC1`, the “hERG current change (%, negative = inhibition) at 10uM” value is on record as -5.89%.
Under `CC(=O)NCCC(=O)N1CCCC(C(=O)c2ccc3c4c(cccc24)CC3)C1` (stereo not drawn) stands -18.5%.
As to `O=C1OCCC1Sc1nnc(-c2ccccc2)o1` (stereo not drawn), the “hERG current change (%, negative = inhibition) at 10uM” value is on record as -7.03%.
On to `O=C(CSc1nc2ccccc2c(=O)[nH]1)c1ccccc1`, for which the “hERG current change (%, negative = inhibition) at 10uM” value stood at 2.19%.
Consider `O=C(OCC(=O)N1CCCc2ccccc21)c1ccccc1NCCO`, for which the “hERG current change (%, negative = inhibition) at 10uM” value was -15.9%.
With `C=CCN(C(=O)CCC(=O)Nc1cc(C)on1)C(C(=O)NC(C)(C)CC)c1cccc(OC)c1OC` (stereo not drawn), the “hERG current change (%, negative = inhibition) at 10uM” value was 7.06%.
For `CN(Cc1ccc(C(F)(F)F)cc1)C(=O)C1CCC(=O)N(C2CC2)C1` (stereo not drawn), the “hERG current change (%, negative = inhibition) at 10uM” value is -51.7%.
Under `O=C(CCSc1ccccc1)NCCSCc1ccccc1` stands -30%; under `CSc1ccccc1NC(=O)Nc1ccc(Cl)cc1`, -1.3%; under `CSc1nc(C)c2c(n1)N(c1cccc(C)c1)CC2`, 22.1%.
Take `CC(NC(=O)COC(=O)c1ccc([N+](=O)[O-])s1)c1ccccc1` (stereo not drawn): the “hERG current change (%, negative = inhibition) at 10uM” value is -20.8%.
`CCOC(=O)NC(Cc1c[nH]c2ccccc12)C(=O)NCCc1ccc(S(N)(=O)=O)cc1` (stereo not drawn): the “hERG current change (%, negative = inhibition) at 10uM” value came out at 24.6%.
For `COc1cccc(C(=O)/C=C2\NCCc3cc(OC)c(OC)cc32)c1`, the “hERG current change (%, negative = inhibition) at 10uM” value is recorded as -8.73%.
With `CCc1nnc(SCC(=O)N2CCCc3ccccc32)nc1CC`, the “hERG current change (%, negative = inhibition) at 10uM” value was -6.92%.
In the case of `O=C(c1cc([N+](=O)[O-])ccc1Cl)N1CCN(c2ccc(F)cc2)CC1`, the “hERG current change (%, negative = inhibition) at 10uM” value is reported as -27.9%.
On to `CC1CN(C(=O)c2ccc(COc3ccccc3Cl)o2)CC(C)O1` (stereo not drawn), for which the “hERG current change (%, negative = inhibition) at 10uM” value turned out to be 3.79%.
Regarding `COCCn1c(C)cc(C(=O)COC(=O)c2ccc[nH]c2=O)c1C`, the “hERG current change (%, negative = inhibition) at 10uM” value was 19.2%.
Regarding `CCN(CC)S(=O)(=O)c1ccc2[nH]c(=O)cc(C(=O)Nc3cccc(C(C)=O)c3)c2c1`, the “hERG current change (%, negative = inhibition) at 10uM” value is recorded as 14.7%.
For `COc1ccc(N2CCCn3c2nc2c3c(=O)n(Cc3ccccc3F)c(=O)n2C)c(OC)c1`, the “hERG current change (%, negative = inhibition) at 10uM” value is -6.44%.
In the case of `COC(=O)/C=C\C(=O)Nc1cccc([N+](=O)[O-])c1`, the “hERG current change (%, negative = inhibition) at 10uM” value is 19.1%.
`COc1ccccc1CN(C)CC(=O)Nc1ccc(Cl)cc1C(F)(F)F.O=C(O)C(=O)O`: the “hERG current change (%, negative = inhibition) at 10uM” value came to 3.8%.
For `COc1ccc(NC(=O)c2ccc(CNc3c(NC4CCCCC4)c(=O)c3=O)cc2)c(OC)c1`, the “hERG current change (%, negative = inhibition) at 10uM” value is 5.92%.
For `COc1ccc2oc(C(=O)N3CCN(C/C=C/c4ccccc4)CC3)c(C)c2c1`, the “hERG current change (%, negative = inhibition) at 10uM” value is -44.8%.
For the molecule `O=C(CN1C2CCCC1CC(NC(=O)C1CCCCC1)C2)Nc1ccccc1` (stereo not drawn), the “hERG current change (%, negative = inhibition) at 10uM” value is -27%.
Regarding `Cl.O=C(NCCc1ccccn1)c1cc(-c2ccc(Cl)c(Cl)c2Cl)nc2ccccc12`, the “hERG current change (%, negative = inhibition) at 10uM” value is reported as 13.1%.
`FC(F)(F)c1ccccc1NC(=S)N1CCN(c2ccccn2)CC1`: the “hERG current change (%, negative = inhibition) at 10uM” value amounted to 5.12%.
For `O=C(/C=C/c1cccc(Br)c1)NCc1ccncc1`, the “hERG current change (%, negative = inhibition) at 10uM” value was -12.4%.
